The assay deals with NCI-H322M lung. Briefly: NCI-60 cell line screen, 48 h.

Where “and” joins values, the source holds several entries; their conditions need not be identical. Identical values can stand only once.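 The compound was tested at five concentrations on cells cultured in 96-well plates, with a 48-hour exposure period. Abbreviation: GI50, concentration required for 50% inhibition of growth. Definition used: TGI = concentration required for complete inhibition of growth.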

For `COc1cc(OC)cc(-c2ccc(-c3ccc(C(=N)N)cn3)o2)c1`, the GI50 is 1.6 µM and the TGI turned out to be 3.05 µM.

As to `COC(=O)c1c(C(=O)OC)c2ccccn2c1-c1cc(OC)c(Br)c(=O)o1`, the TGI is > 100 µM.

Consider `NS(=O)(=O)c1nnc(NC(=O)C23CC4CC(CC(C4)C2)C3)s1`, for which the TGI was > 100 µM.

As to `O=S(=O)(CCN1CCOCC1)Nc1cc(-c2ccc3ncnc(Nc4ccc(F)c(Cl)c4)c3c2)cnc1Cl`, the GI50 is 0.219 µM and the TGI was determined as 2.03 µM.

Regarding `COc1cccc(C23CCCC(C2)NCC3Br)c1OC` (stereo unspecified), the TGI is > 100 µM.

As to `N#CC(N=Nc1ccccc1C(=O)O)C(N)=O` (stereo unspecified), the TGI was > 100 µM.

Regarding `O=c1[nH]c2ccccc2c2nc3ccccc3n12`, the TGI was > 100 µM.

Turning to `CCC(=O)N1C(=O)OCC1C(C)C` (stereo unspecified), the TGI was > 100 µM.

Turning to `COc1cc(C2C3=C(COC3=O)Oc3cc4c(cc32)OCO4)ccc1O` (stereo unspecified), the TGI is > 100 µM.

`CCc1c2c(cc3c1CC1(C3)Cc3cc4c(c(C(=O)OC)c3C1)CCCC4)CCCC2` (stereo unspecified): the TGI is > 100 µM.

Regarding `COc1cc(OC)c(C(=O)c2cccs2)cc1N`, the TGI is > 100 µM.

Take `CCCNC(=S)N/N=C(\C)c1ccc(S(=O)(=O)N(C)c2ccccc2)cc1`: the TGI is > 100 µM.

Turning to `Nc1ccc2[nH]c(-c3cccc(C(F)(F)F)c3)cc(=O)c2c1`, the TGI is > 100 µM.

Consider `Cc1n[nH]c(=S)n(C)c1=S`, for which the TGI is > 100 µM.

For `CCOC(=O)C(NC(=O)c1ccccc1)(Nc1ccc(S(=O)(=O)Nc2ncccn2)cc1)C(F)(F)F` (stereo unspecified), the TGI was > 100 µM.

With `COc1cc(Oc2c(C)c(Cl)c(OC)c(Cl)c2OC)c2c(c1Cl)COC2=O`, the TGI was > 100 µM.

`Cc1[nH]c(=O)[nH]c(=O)c1/C=C/C(=O)O` (tested in a mixture with another compound): the TGI was > 625 µM.

As for `CCC[CH2][Sn]([CH2]CCC)([O]c1cccc2cccnc12)[O]c1cccc2cccnc12`, the GI50 is 0.377 µM and the TGI turned out to be 1.19 µM.

As for `Cc1cc(Cl)nc2nc(Cl)c(N)cc12`, the TGI is 25.4 µM.

With `COC(=O)C1=C(O)[C@H](C(=O)OC)C2(O)C(C(=O)OC)[C@H](c3ccc(OC(=O)C(C)c4ccccc4)cc3)C[C@@H]1[C@@H]2C(=O)OC` (stereo partly specified), the GI50 is 12.6 µM and the TGI came out at 39.5 µM.

In turn, `BrC(Br)=C1C(=C(Br)Br)C(Br)C1Br` (stereo unspecified) registered a TGI of 5.89 µM.

`CCCc1cn2c(/C=N/N=C(N)N)c(-c3cccc([N+](=O)[O-])c3)nc2s1` returned a TGI of 2.78 µM.

On to `CCCCCCCCCCCCOP(=O)(O)OP(=O)(O)OCC1OC(n2ccc(N)nc2=O)CC1O` (stereo unspecified), for which the TGI was > 100 µM.

The molecule `CN(C)c1ccc(/C=C/c2ccc(S(N)(=O)=O)cc2)cc1` displayed a TGI of 43.4 µM.

As for `Cc1c(C)c(C)c(Cn2[nH]c(=O)n(C)c2=O)c(C)c1C`, the TGI was > 100 µM.

On to `CC1(C)[C@@H]2C[C@H]1[C@@H](Cc1cccc(C[C@H]3c4cc(-c5ccccn5)ncc4[C@H]4C[C@@H]3C4(C)C)c1)c1cc(-c3ccccn3)ncc12`, for which the TGI is > 92.7 µM.

With `O=C1C(=O)N(c2ccc(Cl)cc2)C(=O)C(=O)C1c1nc2ccccc2o1`, the TGI was > 100 µM.

As to `CC(CCC[C@H](C)CO)[C@H]1[C@@H](O)C(O)C2[C@@H]3C[C@@H](O)C4(O)C[C@@H](O)CC[C@]4(C)C3CC[C@@]21C` (stereo partly specified), the TGI was > 100 µM.

For the molecule `CC(CC(N)C(=O)O)C(=O)O` (stereo unspecified), the TGI is > 100 µM.

As for `C[C@@]1(C(=O)O)CCC[C@]2(C)C1CC[C@@]13C[C@@](O)(CC[C@]12O)[C@@]1(CO1)C3` (stereo partly specified), the GI50 was > 100 µM and the TGI was > 100 µM.

For the molecule `CN(CCCCCl)P(=O)(OCCS(=O)(=O)CC(NC(=O)CCC(N)C(=O)O)C(=O)NC(C(=O)O)c1ccccc1)OCC1OC(n2ccc(N)nc2=O)C(O)C1O` (stereo unspecified), the GI50 was > 75 µM and the TGI was > 75 µM.

Turning to `CC1CN=C(NS(=O)(=O)c2cc(C(=O)Nc3ccc(Cl)cc3)c(Cl)cc2S)NN1` (stereo unspecified), the TGI was > 100 µM.

For the molecule `COC(=O)/C=C\C(C#N)(C#N)N=Cc1cccc(OC)c1`, the TGI stood at 35.3 µM.

`CC1(c2sccc2Cl)CC(c2sccc2Cl)=C(C#N)C(=C(C#N)C#N)N1` (stereo unspecified) yielded a TGI of 34.9 µM.

Take `Cc1cccc(Br)[n+]1[O-]`: the TGI was > 100 µM.

In the case of `N#CC(/C(CCC(=O)Nc1ccc(Cl)cc1)=N/NC(=O)c1cc2ccccc2cc1O)c1ccccc1` (stereo unspecified), the TGI is > 100 µM.

For `CCC(C)C(N)C(=O)NC(CC(N)=O)C(=O)NC(CC(C)C)C(=O)NC(CCCCN)C(=O)NC(C)C(=O)NC(CC(C)C)C(=O)NC(C)C(=O)NC(C)C(=O)NC(CC(C)C)C(=O)NC(C)C(=O)NC(CCCCN)C(=O)NC(CCCCN)C(=O)NC(C(=O)NC(CC(C)C)C(N)=O)C(C)CC` (stereo unspecified), the TGI is 16.7 µM.

For `CCCCCOCC(O)CO` (stereo unspecified), the TGI is > 100 µM.

Consider `COc1cc(-c2nc3ccc(N4CCN(C)CC4)cc3[nH]2)c(OC)c2[nH]c(COC(C)=O)nc12`, for which the TGI is > 100 µM.

For `CC(=O)Nc1ccc2nc(-c3ccccn3)c(-c3ccccn3)nc2c1`, the TGI was > 100 µM.

For `O=C(/C=C\c1cccc2ccccc12)c1ccc(F)cc1`, the TGI is > 100 µM.

As to `COC(=O)C1Cc2ccc(O)c(O)c2CN1` (stereo unspecified), the TGI came out at 89.2 µM.

The molecule `COc1ccc(/C=C2/CSCC3=C2NC(=S)NC3c2ccc(OC)c(OC)c2OC)c(OC)c1OC` (stereo unspecified) returned a TGI of 64.3 µM.

For the molecule `CC(=O)Nc1cc2cc(N)ccc2oc1=O`, the TGI was > 100 µM.

As for `CO[C@H]1C=CO[C@@]2(C)Oc3c(C)c(O)c4c(O)c(c(CN5CCN(C)CC5)c(O)c4c3C2=O)NC(=O)/C(C)=C\C=C[C@H](C)[C@H](O)C(C)[C@@H](O)C(C)[C@H](OC(C)=O)[C@@H]1C` (stereo partly specified), the TGI is > 100 µM.

On to `NCCSc1cc(O)c2c(c1N)C(=O)c1ccccc1C2=O`, for which the TGI was > 100 µM.

Consider `COc1cc(C2CC(c3cccc(Nc4ccnc5cc(Cl)ccc45)c3)=NN2c2ccc(Cl)cc2)cc(OC)c1OC` (stereo unspecified), for which the GI50 was 22.2 µM and the TGI was > 100 µM.

In the case of `Cn1c(=O)c(Oc2ccc(F)cc2F)cc2cnc(NC(C)(C)CO)nc21`, the GI50 was > 25 µM and the TGI is > 25 µM.

Consider `COC(=O)C1CCC(=O)N1C(c1cc(OC)c(OC)c(OC)c1)c1cc(OC)c(OC)c(OC)c1` (stereo unspecified), for which the TGI was > 100 µM.

`COC1CCON1C(=O)c1ccccc1` (stereo unspecified): the TGI was > 10 µM.

Take `C[C@]12CCC(=O)C(OC(=O)c3ccc([N+](=O)[O-])cc3)=C1CCC2=O`: the TGI was > 100 µM.

On to `NC(N)=NCC1CCCCCCN1` (stereo unspecified), for which the TGI is > 100 µM.

With `COc1ccc(/C(=N\NC(=O)NN)C(c2ccc(OC)cc2)C2(O)C(=O)Nc3c(Cl)cc(Cl)cc32)cc1` (stereo unspecified), the TGI was > 100 µM.

With `CCOP(=O)(OCC)/C(C#N)=C/c1cccn1C(C)C`, the TGI was > 100 µM.

Molecule `COc1cc2c3cc1Oc1c(O)c(OC)cc4c1C(Cc1ccc(O)c(c1)Oc1ccc(cc1)CC3N(C)CC2)N(C)CC4` (stereo unspecified) came in with a TGI of 31.5 µM.

Consider `CC(C)N(O)C(=N)c1ccccc1`, for which the TGI is > 100 µM.

As for `CSCS(=O)C[C@H](CO)NC(=O)/C=C/c1c(C)[nH]c(=O)[nH]c1=O` (stereo partly specified), the GI50 is 0.803 µM; the TGI is 4.28 µM and 3.95 µM.

Values taken from PubChem BioAssay (NCI).
